Measurements published in PMC10256215.
These are yes or no findings as the source states them, for the method shown. In cells and extracts the contact can be indirect. Some binding calls cover weakened binding; strength is not graded here. Tags and fused reporters may be left off the sequences shown.

The chains behind the UniProt entries cited, without tags or fusion partners.
UniProt P13164: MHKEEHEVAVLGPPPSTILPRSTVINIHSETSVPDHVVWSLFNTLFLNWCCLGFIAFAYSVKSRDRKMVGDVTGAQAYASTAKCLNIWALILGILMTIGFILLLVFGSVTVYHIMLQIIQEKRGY

Target: HA-tagged IFITM1 (human) (UniProt P13164)
Assay: co-IP; 293T cells co-transfected for 24 h with FLAG- and HA-tagged constructs; IP with anti-FLAG, anti-HA or control IgG; immunoblot with anti-FLAG and anti-HA

| Binder | binding |
| --- | --- |
| FLAG-tagged OSBP (protein, UniProt P22059 1-807) MAATELRGVVGPGPAAIAALGGGGAGPPVVGGGGGRGDAGPGSGAASGTVVAAAAGGPGPGAGGVAAAGPAPAPPTGGSGGSGAGGSGSAREGWLFKWTNYIKGYQRRWFVLSNGLLSYYRSKAEMRHTCRGTINLATANITVEDSCNFIISNGGAQTYHLKASSEVERQRWVTALELAKAKAVKMLAESDESGDEESVSQTDKTELQNTLRTLSSKVEDLSTCNDLIAKHGTALQRSLSELESLKLPAESNEKIKQVNERATLFRITSNAMINACRDFLMLAQTHSKKWQKSLQYERDQRIRLEETLEQLAKQHNHLERAFRGATVLPANTPGNVGSGKDQCCSGKGDMSDEDDENEFFDAPEIITMPENLGHKRTGSNISGASSDISLDEQYKHQLEETKKEKRTRIPYKPNYSLNLWSIMKNCIGKELSKIPMPVNFNEPLSMLQRLTEDLEYHELLDRAAKCENSLEQLCYVAAFTVSSYSTTVFRTSKPFNPLLGETFELDRLEENGYRSLCEQVSHHPPAAAHHAESKNGWTLRQEIKITSKFRGKYLSIMPLGTIHCIFHATGHHYTWKKVTTTVHNIIVGKLWIDQSGEIDIVNHKTGDKCNLKFVPYSYFSRDVARKVTGEVTDPSGKVHFALLGTWDEKMECFKVQPVIGENGGDARQRGHEAEESRVMLWKRNPLPKNAENMYYFSELALTLNAWESGTAPTDSRLRPDQRLMENGRWDEANAEKQRLEEKQRLSRKKREAEAMKATEDGTPYDPYKALWFERKKDPVTKELTHIYRGEYWECKEKQDWSSCPDIF | binds |
| FLAG-tagged CERT (protein, UniProt Q9Y5P4 1-624) MSDNQSWNSSGSEEDPETESGPPVERCGVLSKWTNYIHGWQDRWVVLKNNALSYYKSEDETEYGCRGSICLSKAVITPHDFDECRFDISVNDSVWYLRAQDPDHRQQWIDAIEQHKTESGYGSESSLRRHGSMVSLVSGASGYSATSTSSFKKGHSLREKLAEMETFRDILCRQVDTLQKYFDACADAVSKDELQRDKVVEDDEDDFPTTRSDGDFLHSTNGNKEKLFPHVTPKGINGIDFKGEAITFKATTAGILATLSHCIELMVKREDSWQKRLDKETEKKRRTEEAYKNAMTELKKKSHFGGPDYEEGPNSLINEEEFFDAVEAALDRQDKIEEQSQSEKVRLHWPTSLPSGDAFSSVGTHRFVQKPYSRSSSMSSIDLVSASDDVHRFSSQVEEMVQNHMTYSLQDVGGDANWQLVVEEGEMKVYRREVEENGIVLDPLKATHAVKGVTGHEVCNYFWNVDVRNDWETTIENFHVVETLADNAIIIYQTHKRVWPASQRDVLYLSVIRKIPALTENDPETWIVCNFSVDHDSAPLNNRCVRAKINVAMICQTLVSPPEGNQEISRDNILCKITYVANVNPGGWAPASVLRAVAKREYPKFLKRFTSYVQEKTAGKPILF | no binding |
